Measured values published in the supplement of paper PMC5499739.
Whole data set: some 16,000 sequences, median “Z-score” near -0.37, cut for the highest 2% near 3.1. The list shows a part of the results.

Each sequence was assayed on RBM10 RRM1-ZnF-RRM2 (GST-tagged construct) (assay: RNAcompete 7-mer binding Z-score; higher = stronger binding preference).
Outline: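 GST-tagged RBM10 constructs (20 pmol) and a designed pool of 241 399 RNAs up to 41 nt (1.5 nmol) were allowed to bind for 30 min at 4°C in 1 ml Hepes pH 7.8 buffer with glutathione Sepharose beads. After four 2-min washes at 4°C, bound RNA was identified by microarray hybridisation. Enrichment was scored per heptamer motif as a one-sided Z-score across the probes containing it.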
For AUUAACG, the “RNAcompete 7-mer binding Z-score” value was -0.293.
In the case of UCCGAAC, the “RNAcompete 7-mer binding Z-score” value is reported as -0.635.
AUACAGA was tested, and the “RNAcompete 7-mer binding Z-score” value was -0.0415.
In the case of GUCUAGU, the “RNAcompete 7-mer binding Z-score” value is reported as -0.238.
With GGUAGCU the “RNAcompete 7-mer binding Z-score” value was 0.683.
With CAAACAA the “RNAcompete 7-mer binding Z-score” value was -0.205.
In the case of UGCCAUC, the “RNAcompete 7-mer binding Z-score” value is reported as -0.803.
In the case of CAUCAGG, the “RNAcompete 7-mer binding Z-score” value is reported as 0.374.
GCCAUGC was tested, and the “RNAcompete 7-mer binding Z-score” value was -0.661.
For CCUUGUG, the “RNAcompete 7-mer binding Z-score” value was -0.857.
GCCCUGA was tested, and the “RNAcompete 7-mer binding Z-score” value was -0.752.
With AACUUUG the “RNAcompete 7-mer binding Z-score” value was -0.65.
For UGCAGAU, the “RNAcompete 7-mer binding Z-score” value was -0.0452.
GGGUCCG was tested, and the “RNAcompete 7-mer binding Z-score” value was 1.71.
For UGCACUC, the “RNAcompete 7-mer binding Z-score” value was -0.621.
For GCGCCCG, the “RNAcompete 7-mer binding Z-score” value was -0.559.
In the case of AUACACG, the “RNAcompete 7-mer binding Z-score” value is reported as -0.238.
For GCAGUGC, the “RNAcompete 7-mer binding Z-score” value was 0.141.
With AUUGUAG the “RNAcompete 7-mer binding Z-score” value was 0.275.
With GCGGGUC the “RNAcompete 7-mer binding Z-score” value was 1.97.
In the case of GAAACGG, the “RNAcompete 7-mer binding Z-score” value is reported as 2.22.
For UGAGCCA, the “RNAcompete 7-mer binding Z-score” value was -0.3.
For AUUAAUU, the “RNAcompete 7-mer binding Z-score” value was -0.617.
For ACCAACU, the “RNAcompete 7-mer binding Z-score” value was -0.683.
In the case of GUGCUAG, the “RNAcompete 7-mer binding Z-score” value is reported as 0.268.
UGUCUCA was tested, and the “RNAcompete 7-mer binding Z-score” value was -0.723.
For UCGUGGG, the “RNAcompete 7-mer binding Z-score” value was 2.23.
For UUAGGAC, the “RNAcompete 7-mer binding Z-score” value was 0.567.
For GUCGUGG, the “RNAcompete 7-mer binding Z-score” value was 1.43.
In the case of CAGCUGA, the “RNAcompete 7-mer binding Z-score” value is reported as -0.424.
CUCACAG was tested, and the “RNAcompete 7-mer binding Z-score” value was -0.351.
With ACAGGGA the “RNAcompete 7-mer binding Z-score” value was 3.47.
With CGCAGGA the “RNAcompete 7-mer binding Z-score” value was 0.647.
CCGGCAU was tested, and the “RNAcompete 7-mer binding Z-score” value was -0.799.
With GGGGUAC the “RNAcompete 7-mer binding Z-score” value was 2.82.
In the case of GUAUCAC, the “RNAcompete 7-mer binding Z-score” value is reported as -0.0925.
AAUCUUU was tested, and the “RNAcompete 7-mer binding Z-score” value was -0.752.
With UUCUUUC the “RNAcompete 7-mer binding Z-score” value was -0.697.
With UCGUGAA the “RNAcompete 7-mer binding Z-score” value was -0.26.
For AUGCGCG, the “RNAcompete 7-mer binding Z-score” value was -0.0889.
For GUUAGUU, the “RNAcompete 7-mer binding Z-score” value was 0.0167.
For UACGAUA, the “RNAcompete 7-mer binding Z-score” value was 0.00944.
ACUUCAG was tested, and the “RNAcompete 7-mer binding Z-score” value was -0.526.
For AUGCUCU, the “RNAcompete 7-mer binding Z-score” value was -0.974.
In the case of UGCGGCG, the “RNAcompete 7-mer binding Z-score” value is reported as 1.03.
UAGUGCG was tested, and the “RNAcompete 7-mer binding Z-score” value was 0.548.
For GUCAACG, the “RNAcompete 7-mer binding Z-score” value was 0.301.
CGAAGGC was tested, and the “RNAcompete 7-mer binding Z-score” value was 0.829.
For AUUUUGC, the “RNAcompete 7-mer binding Z-score” value was -0.992.
In the case of CUAGAGC, the “RNAcompete 7-mer binding Z-score” value is reported as -0.468.
For CUACGUU, the “RNAcompete 7-mer binding Z-score” value was -0.697.
AUGGUUG was tested, and the “RNAcompete 7-mer binding Z-score” value was 2.02.
With GUUCCGA the “RNAcompete 7-mer binding Z-score” value was -0.541.
In the case of ACAAAUG, the “RNAcompete 7-mer binding Z-score” value is reported as 0.359.
GAGGCGU was tested, and the “RNAcompete 7-mer binding Z-score” value was 1.06.
ACUGCAC was tested, and the “RNAcompete 7-mer binding Z-score” value was -0.592.
For AGAGAUG, the “RNAcompete 7-mer binding Z-score” value was 1.17.
In the case of GUCUCUC, the “RNAcompete 7-mer binding Z-score” value is reported as -0.719.
AGAUGCC was tested, and the “RNAcompete 7-mer binding Z-score” value was -0.916.
UCUUGAA was tested, and the “RNAcompete 7-mer binding Z-score” value was -0.868.
UGCCCUU was tested, and the “RNAcompete 7-mer binding Z-score” value was -0.832.
AACCUGU was tested, and the “RNAcompete 7-mer binding Z-score” value was -0.697.
With AAUCGCA the “RNAcompete 7-mer binding Z-score” value was -0.347.
For CACUAGA, the “RNAcompete 7-mer binding Z-score” value was -0.213.
UUCAAGG was tested, and the “RNAcompete 7-mer binding Z-score” value was 0.312.
With AAGGGUC the “RNAcompete 7-mer binding Z-score” value was 2.01.
In the case of AAUUUAA, the “RNAcompete 7-mer binding Z-score” value is reported as -0.602.
In the case of AUGGGGG, the “RNAcompete 7-mer binding Z-score” value is reported as 3.84.
With UACUGCA the “RNAcompete 7-mer binding Z-score” value was -0.493.
For UCUCGUC, the “RNAcompete 7-mer binding Z-score” value was -0.726.
For AGUCCCG, the “RNAcompete 7-mer binding Z-score” value was -0.358.
AUUGAUC was tested, and the “RNAcompete 7-mer binding Z-score” value was -0.282.
For ACCAAGU, the “RNAcompete 7-mer binding Z-score” value was -0.329.
With AAGCAUA the “RNAcompete 7-mer binding Z-score” value was 0.0641.
With GAGCAUG the “RNAcompete 7-mer binding Z-score” value was 0.483.
With ACAUAGA the “RNAcompete 7-mer binding Z-score” value was 0.0932.
With AGCCCAU the “RNAcompete 7-mer binding Z-score” value was -0.857.
With CACAUUA the “RNAcompete 7-mer binding Z-score” value was -0.435.
With GAGAUCG the “RNAcompete 7-mer binding Z-score” value was 0.439.
For AACCGAU, the “RNAcompete 7-mer binding Z-score” value was -0.49.
For UAAUCAA, the “RNAcompete 7-mer binding Z-score” value was -0.249.
In the case of CAUAAAA, the “RNAcompete 7-mer binding Z-score” value is reported as -0.347.
With CCAAAUA the “RNAcompete 7-mer binding Z-score” value was -0.584.
In the case of GAAACAU, the “RNAcompete 7-mer binding Z-score” value is reported as -0.169.
For CCUGUGC, the “RNAcompete 7-mer binding Z-score” value was -0.712.
UCAUGGA was tested, and the “RNAcompete 7-mer binding Z-score” value was 0.567.
For AGGGGGA, the “RNAcompete 7-mer binding Z-score” value was 2.14.
For GUAGCGG, the “RNAcompete 7-mer binding Z-score” value was 1.93.
With CGAGGCA the “RNAcompete 7-mer binding Z-score” value was 1.4.
With AUAAUGU the “RNAcompete 7-mer binding Z-score” value was -0.136.
In the case of CCGGACA, the “RNAcompete 7-mer binding Z-score” value is reported as -0.504.
In the case of CGCCCGU, the “RNAcompete 7-mer binding Z-score” value is reported as -0.621.
CCCAAAG was tested, and the “RNAcompete 7-mer binding Z-score” value was -0.595.
With UCGGGGC the “RNAcompete 7-mer binding Z-score” value was 1.85.
GUCGUAU was tested, and the “RNAcompete 7-mer binding Z-score” value was 0.381.
In the case of AUCAAAA, the “RNAcompete 7-mer binding Z-score” value is reported as -0.388.
For AAGGAAG, the “RNAcompete 7-mer binding Z-score” value was 4.04.
With CUAGUAU the “RNAcompete 7-mer binding Z-score” value was -0.413.
For UUCCCCA, the “RNAcompete 7-mer binding Z-score” value was -0.65.
With GUUUCGU the “RNAcompete 7-mer binding Z-score” value was -0.176.
